# ± gives the standard deviation of the averaged measurements. The list shows a part of the results.
# System: PfAP2-LT AP2 domain (GST-tagged)
# Experiment: gcPBM binding intensity (ln(normalized median fluorescence intensity)); higher = stronger DNA binding
# Summary of the method: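 An Agilent 4 × 180k array of primer-extended double-stranded 36-bp intergenic genomic probes, with negative controls, was incubated for 1 h with GST-tagged P. falciparum DNA-binding domains expressed in E. coli. Alexa488 anti-GST antibody detected bound protein, scanned at 488 nm. Binding intensity is the highest Masliner-normalised natural-log median intensity across replicate spots of either probe orientation.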
row,Sequence,gcPBM binding intensity (ln)
1,TAATAATATAATAATACACACTCATTATATATATAA [CACACA_site6045],8.71 ± 0.43
2,TATATTTCTTATTACATACACACATATACATATATG [CACACA_site3202],9.14 ± 0.45
3,CCATTCAAATTTCGCACACACATACAAAAAAAAAAA [CACACA_site3093],9.39 ± 0.42
4,TATAAATGATTAATTTGTACATATTTTACTTAATTG [XGTACX_site5271],8.56 ± 0.51
5,TTGATGATATCATTTTGTACTTATACGTATTTAAAA [XGTACX_site148],8.59 ± 0.44
6,TAAATAAATAAATATATATATATATATATATATATA [XGTACX_negctrl_site70],9.28 ± 0.53
7,ACAAAAAAAAAAAAAATACACACACATAAAAAAAAA [TGCATGCA_negctrl_site333],9.32 ± 0.35
8,ACAAAATATTTTTCTTCACACATCCATTCAACATTT [CACACA_site5886],8.89 ± 0.43
9,AATCAAAACATTAAAAAGAAAAAATATATATATATA [CACACA_negctrl_site366],9.13 ± 0.13
10,TATATATATATATATATTAATAATTAATATAAAAGA [XGTACX_negctrl_site32],8.72 ± 0.38
11,TACATATTTTTCTTTTCACACATGGAAAAAAAAGGT [CACACA_site5146],8.62 ± 0.45
12,ATATATATATATATATATATATATATATATAAGTGG [XGTACX_negctrl_site90],9.78 ± 0.19
13,TATTAATTCATTTTTTTTTTTTTTTTTTTTTTTTTT [CACACA_negctrl_site1215],8.47 ± 0.38
14,AATATATTTATTATAACACACACATATATATATTAT [CACACA_site8264],9.29 ± 0.42
15,TATTTTTTTTTTCACTGTACATACAACAACAAATAT [XGTACX_site8835],8.52 ± 0.52
16,CCCTTAATTTAAAACACACAAACAAATAAGTTAGTT [CACACA_site3793],8.78 ± 0.36
17,GATTTAATAGATACGAGTACAGAAATTGTATACATA [XGTACX_site7563],8.82 ± 0.4
18,ACACAAAAAATTAAGTGTACTCATCAAGAAAAAAAA [XGTACX_site3456],8.84 ± 0.53
19,TATATATTTTTTTCATGTACATATAAATTAATTAAA [XGTACX_site8680],8.31 ± 0.35

row,Sequence,gcPBM binding intensity (ln)
1,ATAAAATACCCTGATCTATTACATATTATATTCTGC [GTGCAC_negctrl_site311],8.82 ± 0.47
2,TTATATGTTTTGTGTACACAATTTATTAAATTAATA [CACACA_site5645],8.76 ± 0.45
3,ATAGGAAAAAGTATTGGTACACATACATATACGTTA [XGTACX_site5819],8.86 ± 0.4
4,CAAACAATTAAACAAACACACATATACATGTATATA [CACACA_site2060],9.06 ± 0.45
5,AAAATAAGCCATATACGTACATACATATATAAATAT [XGTACX_site4197],8.94 ± 0.34
6,TAATTACACTTTAAAAGTACATATATAATAACATTA [XGTACX_site379],8.49 ± 0.4
7,TTTTTTATGTTCAATTGTACATATACATATATATAT [XGTACX_site6013],9.12 ± 0.52
8,TTCATATTTCATATATGTACTTATGTTCAATATAGT [XGTACX_site3811],8.78 ± 0.48
9,TTTTTTGACATTCCTTTTAATAATTAACGAAAGGCA [GTGCAC_negctrl_site377],8.22 ± 0.33
10,CTTAAAATGATAATATGTACACATAAATAATATATA [XGTACX_site8330],8.79 ± 0.38
11,TAAGTTTGTCAATCAACACACACCTATTTATTATAT [CACACA_site3919],9.11 ± 0.35
12,CACTTTAATTTATGCACACATATGGAACAACAGCCA [CACACA_site994],9.05 ± 0.41
13,TATAATCAATGCCAAAGTACATATTAATATATTTAT [XGTACX_site4558],8.68 ± 0.47
14,AATATATCGCATAGTTGTACAGAATTTTTACTTTTA [XGTACX_site8192],8.74 ± 0.37
15,ATTGAAAAATAAAAATGTACACATGTAGCATACCAT [XGTACX_site3275],8.97 ± 0.49
16,TATATAATATTACGTTGTACACTTTAATCTCCCTTC [XGTACX_site5577],8.95 ± 0.57
17,ACCATTTGAAAATTCACACACTTTATTTTGTTATAT [CACACA_site5976],9.18 ± 0.39
18,ACTAATATGCAATATTGTACATATATATAGAAATAT [XGTACX_site5273],8.81 ± 0.52
19,AAATGTATACACATGGTGCGTAATATATTATATATA [GTGCAC_site9877],8.97 ± 0.42

row,Sequence,gcPBM binding intensity (ln)
1,CTACCAAATCTATAGACACACATATATATATATATT [CACACA_site2486],9.32 ± 0.24
2,GAACTAATAATGAAAAGTACACATACACATATATAT [XGTACX_site6789],9.05 ± 0.52
3,AAAGATATTTTTATCTCACACATATAATATATATAT [CACACA_site5478],8.79 ± 0.38
4,TAAAATTTAAGTTATACACACTTAAGTAACATCATC [CACACA_site6395],8.71 ± 0.43
5,TATAGAAAATTTATATGTACATATATATATATATAT [XGTACX_site4451],9.29 ± 0.33
6,TATTTACAGACATGCGCACACATAAATAAATAATAG [CACACA_site2411],9.3 ± 0.43
7,GTTACTGCATACATAACACACATATTCAAAACACAT [CACACA_site3502],9.2 ± 0.25
8,GCATATGTATATAATGTGCACATGGATTATATAAAA,9.16 ± 0.52
9,TTTATATAATAGTTATGTACTTAAACGAAAGATACA [XGTACX_site8495],8.39 ± 0.41
10,AAATACAAGGGACATGCATACCACTATTTTTTAAAT [TGCATGCA_site588],8.8 ± 0.46
11,ATAACATACATAACAACACACAATATTTATCTGTAT [CACACA_site4279],9.44 ± 0.29
12,TTCTTCTGTTTTATTACACACCATTTTGTGTCTACA [CACACA_site8643],9.62 ± 0.71
13,CTCTATATATTATTATGTACTAAATGTATGTATGTA [XGTACX_site7151],8.86 ± 0.41
14,TAACACACTAAGAAAAGTACTGATTAATATAATTTT [XGTACX_site5536],8.76 ± 0.49
15,ATGAATGAATAAAGAAGTACGGAAATATTAACAAAA [XGTACX_site4695],8.87 ± 0.48
16,AAAACACAATTTATTACACACATATATTATATATTA [CACACA_site1420],8.9 ± 0.4
17,TATGATTTTTATATATGTACGTATGGTGTTTTACAA [XGTACX_site6100],8.76 ± 0.41
18,TACGCCTATAACGGCTGTACACCTTACTTTTTTTAA [XGTACX_site6818],8.78 ± 0.37
